Hit rate of the full screen: of about 48,000 compounds, about 450 (0.94%) were called active. Another 19% or so got no clear call; they are omitted. The call rests on the fitted dose curve; in most records, active means well fitted inhibition curve with a large enough effect; inconclusive means small, poorly fitted or top-dose-only effect; inactive means no such curve, though single readings can be large or run the other way. The list shows a part of the results.
Assay: Primary qHTS for Identification of Small Molecule Inhibitors of Huntingtin Promoter Activity; further: nearly all actives have a fitted effect of over 50% in size
Conditions: HEK293 HTT promoter firefly luciferase reporter (activity 0% = vehicle and -100% = no light), 24 h; series mostly up to 57.5 µM; activity change, negative = inhibition: at the top concentration
In short: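 HEK293 luciferase promoter-reporter cells (2,500/well) plated 24 h, then compounds added at up to 57.5 uM final for 24 h at 37 °C. Firefly luminescence by Dual-Glo, normalized to vehicle (0%) and zero RLU (-100%).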

Activity change, negative = inhibition, inactive:
O=C(Nc1ccc2nc3n(c(=O)c2c1)CCCCC3)C(=O)Nc1ccccc1F 8.73%, COc1cc(NC(=O)c2nn(C)c3c2CS(=O)(=O)c2ccccc2-3)cc(OC)c1 -22.4%, CCc1ccc(Cn2c(CNS(=O)(=O)c3ccc([N+](=O)[O-])cc3)nc3cccnc32)cc1 -9.02%, Cc1cccc(Nc2nn3c(=O)c4cc5c(cc4nc3s2)OCO5)c1 -13.8%, CCn1nc(C)c(CCN(C)C(=O)Nc2ccc(C)c(Cl)c2)c1C 0%, COc1cc(N2C(=O)CSC23C(=O)N(Cc2cccc(F)c2)c2ccccc23)cc(OC)c1OC (stereo not given) -31.7%, COc1ccc(NC(=O)c2sc3nc4c(cc3c2N)CCCCCC4)c(OC)c1 -7.81% [at 11.5 µM], CCN(CC)CCNC(=O)CN1C(=O)COc2ccc(S(=O)(=O)N3CCOCC3)cc21 -7.14%, CCOC(=O)Cn1c(=O)n(CC2CCCO2)c2nc(-c3ccc(OCC)cc3)nc(C(N)=O)c21 (stereo not given) -8.48%, COc1ccc(CCNC(=O)c2ccc3c(c2)CCN3S(=O)(=O)c2ccccc2)cc1OC -14%, CCOc1ccccc1NC(=O)Cn1c(=O)n(Cc2ccccc2)c(=O)c2c1c1cc(C)ccc1n2C -3.41%, COc1ccccc1OCc1nnc(-c2ccccc2)o1 56.2%, CCCCOC(=O)c1ccc(OC(=O)c2sc3ncn(Cc4ccccc4Cl)c(=O)c3c2C)cc1 -19.1% [at 11.5 µM], CCOc1ccc(CNCCCSc2nnnn2C)cc1OC -15.1%, COc1cccc(CNC(=O)Cc2csc3nc(-c4ccccc4)cn23)c1 -0.785%, Cc1ccccc1Nc1c(-c2ccc(Br)cc2O)nc2sccn12 -14.3%, CCOc1ccc(NC(=O)Cn2cc(C(=O)c3ccc(OC)cc3)c(=O)c3cc4c(cc32)OCO4)cc1 -6.43%, O=C(Nc1ccc(Cl)c(-c2nc3ccccc3o2)c1)c1ccc(-c2cccc([N+](=O)[O-])c2)o1 -2.02%, COc1ccccc1CNC(=O)c1cnc(N(C)C)nc1 -8.49%, COc1ccc(NC(=O)Cn2c(SCc3ccc(F)cc3)nc3cccnc32)c(OC)c1 -28.8%, COc1cccc(N2CCN(C(=O)c3cc4c(=O)n(Cc5cccnc5)ccc4nc3C)CC2)c1 3.07%, CC1CCn2c(nc3cc(C(=O)NCCc4ccccc4)ccc32)C1 (stereo not given) 2.18%, CCOc1ccc(C(=O)Nc2nc(-c3ccc(Br)cc3)ns2)cc1 -10.4%, COC(=O)c1ccccc1NC(=O)CCC(=O)N1CC(C)Sc2ccccc21 (stereo not given) -17.6%, Cc1ccc2c(=O)cc(C(=O)Nc3ccc(S(=O)(=O)N4CCCCC4)cc3)oc2c1 -15% [at 11.5 µM], COc1ccc(NC(=O)C2CCCN(c3cnccn3)C2)c(OC)c1 (stereo not given) 0.565%, CCC(Cc1ccccc1)NC(=O)CCS(=O)(=O)c1cc2c(cc1Cl)NC(=O)CO2 (stereo not given) -9.32%, Cc1ccc(NC(=O)CSc2cn(CC(=O)N3CCOCC3)c3ccccc23)cc1Cl -19%, Cn1c(=O)c2nc3ccc(NC(=O)C(F)(F)F)cc3nc2n(C)c1=O 13.8%, Cc1ccc2c(c1)C(c1ccccc1)N(C(=O)c1ccc(S(=O)(=O)N3CCCC3)cc1)CC(=O)N2 (stereo not given) -25.8%, N=C(N)c1ccc(OCCCCCOc2ccc(C(=N)N)cc2)cc1 -18.3%, Cc1ccc(NC(=O)CN2C(=O)CSc3ccc(S(=O)(=O)N(C)C)cc32)c(C)c1 -30.9%, O=S(=O)(c1ccccc1)c1nnn2c1nc(N1CCN(c3ccccc3)CC1)c1cc(Cl)ccc12 8.48%, COc1ccc2sc(N(Cc3cccnc3)C(=O)C3COc4ccccc4O3)nc2c1 (stereo not given) -3.15%, NS(=O)(=O)OC[C@@H]1C[C@@H](n2ccc3c(N[C@H]4CCc5ccccc54)ncnc32)C[C@H]1O -1.69%, CCOC(=O)/C(C#N)=C/c1ccc(-c2ccccc2)o1 44.5%, O=C(Cn1cc2c(n1)CCCC2)Nc1cc(C(F)(F)F)ccc1Cl -30.2%, Cc1nc(SCc2ccccc2Cl)c(C#N)c(C)c1C 4.47%, Cc1cc(C)cc(NC(=O)c2sc3nc4n(c(=O)c3c2C)N=C(c2ccc(F)cc2)CS4)c1 -11.3%, CCc1cccc(NC(=O)CSc2n[nH]c(-c3ccccc3Cl)n2)c1 -23.2%, Cc1nnc(N2CCN(c3cccc(Cl)c3)CC2)c2c1nnn2Cc1ccc(F)cc1 -4.97%, Cn1c(NCCN(CCO)CCCc2ccc([N+](=O)[O-])cc2)cc(=O)n(C)c1=O, CCOc1ccc(OCC)c(NC(=O)c2cnn(-c3ccc(F)cc3)c2C2CCN(C(=O)OC(C)(C)C)CC2)c1 -10.5%, CCCNC(=O)Cn1ncc2c3ccccc3n(CCC)c2c1=O -13.1%, COc1ccc(-n2ccnc(NCc3cccs3)c2=O)cc1 -16.2%, CCOc1ccc(-n2c(C)nc3cc(C(=O)NCc4ccc(C)cc4)ccc32)cc1 -28.2%, COc1ccc(-c2ccc(-c3noc(-c4cc(OC)cc(OC)c4)n3)c(OC)n2)cc1 4.09%, Cc1ccc(C(=O)Nc2nnc(S(=O)(=O)N(C)Cc3ccc(F)cc3)s2)cc1 8.38%, CC1CCCN(c2nc(-c3ccccc3O)nc3ccccc23)C1 (stereo not given) -5.13%, O=c1c2c3c(sc2nnn1Cc1ccc(F)cc1)CCCC3 -28.1%, CC(=O)N1CCc2c(sc3c2c(=O)n(-c2ccccc2)c(=O)n3CC(=O)Nc2ccccc2C)C1 -6.41%, COc1ccc(NC(=O)c2oc3ccccc3c2NC(=O)c2cc3ccccc3o2)cc1 4.49%, CCOc1ccc(NS(=O)(=O)c2ccc3[nH]cc(C(=O)N(C)Cc4ccccc4)c(=O)c3c2)cc1 4.05%, COc1ccc2c(c1)CC(NC(=O)Nc1c(C)cc(C)cc1C)CO2 (stereo not given) -1.41%, CCOc1ccc(NC(=O)CSc2nnc3scc(-c4ccc(Cl)cc4)n23)cc1 -7.75%, Cc1cccc(-n2c3nc(=O)[nH]c(=O)c-3cc3c(Cl)cccc32)c1C -35.2%, O=C(NCC(c1ccco1)S(=O)(=O)c1cccs1)c1ccc(F)cc1 (stereo not given) 17%, CC(=O)Nc1ccc(C2Sc3ccccc3NC3=C2C(=O)c2ccccc23)cc1 (stereo not given) 29%, CCOC(=O)c1ccc2oc(=O)n(Cc3ccccc3)c2c1 0%, Cc1oc2ncn(CC(C)C)c(=O)c2c1C(=O)NCCCN1CCCCC1 -16.8%, Cc1cc(C)c(NC(=O)c2cc3sc(Cl)cc3n2C)c(C)c1 -16.8%, COc1ccccc1CNC(=O)c1ccc(N2CCCC2)c(NC(=O)NCCC(C)C)c1 -23.6%, O=C(COc1ccc(F)cc1)Nc1ccc2nc(SCC(=O)N3CCc4ccccc43)sc2c1 -10.4%, COc1cccc(NC(=O)CSc2ncc(S(=O)(=O)c3ccc(C)c(C)c3)c(=O)[nH]2)c1 -3.44%, CC(=O)c1ccc(N2CCN(S(=O)(=O)c3ccc(-c4cc(C(F)(F)F)on4)s3)CC2)cc1 -4.09%, Cc1ccccc1OCC(=O)OCc1cc(=O)n2nc(C3CCCCC3)sc2n1 -2.24%, CCc1c(-c2ccccc2)nc2ccccc2c1C(=O)NCCc1ccccc1 1.44%, Cc1csc2nc(COc3ccccc3NC(=O)c3ccco3)cc(=O)n12 -3.54%, CSc1cccc(NC(=O)Cn2c3ncccc3c(=O)n2-c2ccc(C)cc2)c1 -2.02%, Cc1ccc2c(=O)cc(C(=O)Nc3cccc(Cl)c3C)oc2c1C -4.76% [at 11.5 µM], COc1ccc(OCCCCn2c(-c3ccc(Cl)cc3)nc3ccccc3c2=O)cc1 3.08%, CCCCCOC(=O)CSc1ncnc2c1sc1nc(N3CCOCC3)c3c(c12)CCCC3 -3.58%, CCC(=O)N1CCN(c2ccc(-n3c(=O)ccc4cnc5ccc(-c6cnc7ccccc7c6)cc5c43)cc2C(F)(F)F)CC1 -28.8%, Cc1cc(Nc2cccc(C)c2C)n2cnnc2n1 2.6%, Cn1c(=O)c2c(-c3ccccc3Cl)n(-c3cc(Cl)ccc3O)cc2n(C)c1=O -15.3%, Cc1ccc(C)c(-n2c(CCC(=O)O)ccc2-c2ccc(Cl)cc2)c1 -22.7%, COc1ccc(CNC(=O)c2c(O)nc3cc(C)ccn3c2=O)cc1 -4.01%, CCc1ccc2ncc3c(-c4ccc(F)cc4)nn(CC(=O)NCc4ccccc4)c3c2c1 3.12%, CC(C)CC(C(=O)NCc1ccc(F)cc1)N1Cc2ccccc2C1=O (stereo not given) -23.5%, CCOc1ccc(-c2nc(SCC(=O)Nc3ccc(C)c(C)c3)n3[nH]c(=O)cc3n2)cc1 -10.3%, Cc1ccc(C(C)C)c(OCC(=O)Nc2ccc(C(=O)OC3CCCCC3)cc2)c1 4.33%, CCc1nnc(SCc2nc(-c3ccc(OC)c(OC)c3)oc2C)c2cc3sc(C)cc3n12 -5.4%, Cc1ccc(/C=C/c2onc(C)c2S(=O)(=O)N2CCC(C(=O)NCc3ccc(C)o3)CC2)cc1 -20.2%, COc1cccc(CNC(=O)Cc2ccc(NC(=O)N3CCCCc4ccccc43)cc2)c1OC -25.2%, Cc1cc(C)cc(N2C(=O)CSC23C(=O)N(CC(=O)NCCc2ccccc2)c2ccccc23)c1 (stereo not given) -3.97%, O=c1[nH]c(=O)c2[nH]c(=O)[nH]c2[nH]1 -5.97% [at 11.5 µM], CC(C)Oc1ccc(CNC(=O)CN2C(=O)CCc3cc(S(=O)(=O)N4CCCCC4)ccc32)cc1 -23.9%, COc1ccc(NC(=O)CCS(=O)(=O)c2cccc3nonc23)cc1Cl -12.7%, COc1ccccc1NCc1cccn1-c1nnc(N2CCOCC2)s1 3.46%, Cc1oc2ncn(C)c(=O)c2c1C(=O)NC(C)c1ccccc1 (stereo not given) -16.1%, O=C(CSC1=Nc2ccccc2N=C(c2ccc(F)cc2)C1)NCc1ccc(F)cc1 -11.8%, Cc1ccc(C)c(CN2C(=O)CSc3ccc(C(=O)NCc4ccc(F)cc4)cc32)c1 -11.9%, CCC(=O)N1c2nc(-c3ccco3)nn2C2(CCCCC2)[C@@H]2CCCC[C@@H]21 -11%, Cc1ccc(CSc2nc3cccnc3n2Cc2ccc(C(=O)NCCc3ccccc3)cc2)cc1 6.91%, CCS(=O)(=O)N1CCc2cc(C(=O)Nc3cccc(Cl)c3C)ccc21 28.1%
